From the supplement of paper PMC10338343
± gives the standard deviation. In all, about 5,500 sequences were measured (“pre-steady-state target cleavage rate”: median about 0.1, highest 2% from about 0.64 on). This is a selection; strong and weak results do not stand in their true shares.

test system: MIWI (PIWIL1) piRISC loaded with piRNA #2 (30 nt); assay: pre-steady-state target cleavage rate (min^-1); MIWI and MILI are mouse PIWI proteins and EfPiwi is from a freshwater sponge; tags in brackets are library labels; higher = faster piRNA-guided slicing of the target; details: guide: piRNA #2 5'p-UUAGGUAACCCAGUAGAUCCAGAGGAAUUC; auxiliary factor: 500 nM mouse GTSF1
Summary of the method: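 The pre-steady-state cleavage rate came from a burst-and-steady-state fit to pooled data from three Cleave-'n-Seq trials, in which uncleaved targets were sequenced and normalised to depth and to weakly complementary targets. Each reaction held 0.1 nM transcribed, DNA-blocked target RNA library and 1 nM active affinity-purified piRISC carrying one synthetic guide, with or without 500 nM GTSF1 partner protein, in HEPES–potassium acetate buffer at 33 °C for 0–8 or 0–960 min. k3 was capped at 0.0001 min^-1.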

Sequence | pre-steady-state target cleavage rate
CAAUUCCUCUGGAUGUACUGGGAUACCUAA | 0.271 ± 0.031
CUUAAGGACUGGAUCUACAGGGUAACCUAA | 0.013 ± 0.013
CUAUUCCACUGGAUCUACUGGGUAACCUAA | 0.306 ± 0.049
CUUAAGGUCUGGAUCUACAGGGAUACCUAA | 0.115 ± 0.016
CUUAAGGUCUGGAUCUAUUGGGUUACCUAA | 0.157 ± 0.024
CUUAAGGUCUGGAUCUACUGGGUUGACCUAA | 0.2 ± 0.029
CUUAAGGAGACCUACUACUGGAUUACCUAA | 0.00279 ± 0.0025
CAAUUCCUCUGGAUCUAGUGGGUUACCAAA | 0.157 ± 0.03
CUUAUCCUCUGGAACUACUCGGUUACCUAA | 0.104 ± 0.013
CUUAAGGAGUGGAUCUACUGGGUUCCCUAA | 0.0254 ± 0.0073
CUUAAGGUCUGGAUCUACUGGGUAUACCUAA | 0.175 ± 0.029
CAAUUCCUCUGGAUCGACUGGGUUACCUAA | 0.234 ± 0.045
CUUAAGGUCUGGAACUUCUGGGUUACCUAA | 0.0549 ± 0.033
CUUAAGGUCUGGUUCUACUGGGUUAGCUAA | 0.0673 ± 0.018
CUUAAGGAGAGGAUCUACUGGGUUACCUAU [g2:g20:cont:t1U] | 0.0261 ± 0.0083
GAAUUCCACUGGAUCUACUGGGUAACCUAA | 0.413 ± 0.052
CUUAAGGUCAGCAUCUACUGGGUUACCUAA | 0.00553 ± 0.0032
CUUAACCUCUGGAUCUCCUGGGUUACCUAA | 0.123 ± 0.019
CUUAAGGUCUGGAACUACUGGGUUACCAAA | 0.0242 ± 0.02
GAAUUCCUCUGGACUACUGGGUUACCUAA | 0.275 ± 0.05
CUAUUCCUCUGGAUCACUGGGUUACCUAA | 0.0267 ± 0.0074
CUAUACGUCUGGAUCUACUGGGUUACCUAA | 0.401 ± 0.045
CUUAACCUCUCGAUCUACUGGGUUUCCUAA | 0.322 ± 0.038
GAACUCCUCUGGAUCUACUGGGUUACCUAA | 0.0999 ± 0.031

Sequence | pre-steady-state target cleavage rate
CUUAACCUCUGGAUGUACUGGCUUACCUAA | 0.0887 ± 0.012
CUUUUCCUCUGGAUCUACUGGGUUACUCUAA | 0.234 ± 0.037
CUUAAGGAGUGGUUCUACUGGGUUACCAAA | 0.0064 ± 0.0031
CAAAUCCUCUGGAUCUACUGGGUUACCAAA | 0.49 ± 0.072
CUUAAGGAGACGAUCUACUGGCGUUACCUAA | 0.0106 ± 0.0039
CUUAAGGAGACCUAGAUGACGCGUUACCUAA | 0.00385 ± 0.0021
CUAUUCCUCUGGAUCAACUGGGUUACGUAA | 0.441 ± 0.051
CAAUUCCUCUGGAACUUCUGGGUUACCUAA | 0.413 ± 0.041
CUUAACCUCUGGAUCUACACGGUUACCUAA | 0.169 ± 0.016
CUAAUUCCUCUGGAUCUACUGGGUUACCUAA | 0.284 ± 0.034
GAUUUCCUCUGGAUCUACUGGGUUACGUAA | 0.537 ± 0.066
CAAUUCCUCUGGUUCUACUGGGUUACCAAA | 0.515 ± 0.086
CAAUUCCUCAGGAUCUACUGGGAUACCUAA | 0.444 ± 0.05
CUUUUCCUCUGGAAGUACUGGGUUACCUAA | 0.573 ± 0.035
CUUAAGGACUGGAUCUACCGGGUUACCUAA | 0.0324 ± 0.011
CAAUUCCUCUGGAACAACUGGGUUACCUAA | 0.596 ± 0.054
CAAUUCCUCAGGAUCUACUGCGUUACCUAA | 0.674 ± 0.071
CUUAAGGUCUGGAUGUACUGCGUUACCUAA | 0.108 ± 0.037
CUUUUCCUCUGGAUCUACUGGGUUACGAUA | 0.224 ± 0.042
CUUAACCUCUGGAUCUACUGCGUUAGCUAA | 0.0732 ± 0.027
GAAUUCGUCUGGAUCUACUGGGAUACCUAA | 0.324 ± 0.048
CUUAUCCUCUGGAUCUACUGGGUUACCUAAA | 0.346 ± 0.053
CUUAACCUCUGAUCUACUGGGUUACCUAA | 0.192 ± 0.02
CAAUUCCUCUGGAUCUACUCGGAUACCUAA | 0.00864 ± 0.007

Sequence | pre-steady-state target cleavage rate
CUUAAGGUCUGGAUCAACUGGGUUAGCUAA | 0.0423 ± 0.014
CUUAACGUCUGGAUCUACUGGGUUACCUAA | 0.277 ± 0.03
CUUAAGGACUGGAUCUAAUGGGUUACCUAA | 0.0855 ± 0.029
CUUAUCCUCUGGAUCUACUGGGUUGACCUAA | 0.379 ± 0.034
CAAUUCCUCUGGAUCUACUGCCUUACCUAA | 0.0897 ± 0.018
CUUAUCCCUGGAUCUACUGGGUUACCUAA | 0.406 ± 0.031
CUUAUCCUCUGCUACUACUGGGUUACCUAA | 0.27 ± 0.024
CUUAUCAUCUGGAUCUACUGGGUUACCUAA | 0.364 ± 0.03
CUUAUCCUCUGGAUCUACUGGGUUACCUAG [g2:g26:cont:t1G] | 0.386 ± 0.072
CAAUUCCUCUGGAUCUACUGGCUUACCUUA | 0.0592 ± 0.021
GAAUUCCUCUGGAUCUACUGGGUCUACCUAA | 0.421 ± 0.045
CUUAUCGUCUGGAUCUACUGGGUUACCAAA | 0.185 ± 0.048
CAAUUCCUCUGGAUGUACAGGGUUACCUAA | 0.431 ± 0.031
GAAUUCCUCUGGAUCUACUGGGUUCCUAA | 0.00587 ± 0.0046
CUAUUCCACUGGAUCUACUGGGUUACCAAA | 0.311 ± 0.056
CUUAUCCUCUGGAUCUACUGGGUUAGCUAA | 0.337 ± 0.046
CUUAAGGAGUGGAUCUACUGGGUUAUCUAA | 0.0152 ± 0.0056
CUUUUCCUCUGGAUCUACAGGGUUACCAAA | 0.235 ± 0.025
CUUAUCCUCUGGAUCUAGAGGGUUACCUAA | 0.0291 ± 0.0072
GAAUUCCUCUGGAUGUACUGGCUUACCUAA | 0.0879 ± 0.023
CAAUUCCUCUGGAUCUAGUGGGUAACCUAA | 0.0654 ± 0.016
CUUAAGGUCUGGAUCUACUGGGUACCUAA | < 0.0001
CUUUUCCACUGGAUCUACUGGGUUAGCUAA | 0.155 ± 0.033
CAAUUCGCUCUGGAUCUACUGGGUUACCUAA | 0.202 ± 0.035
